Some of the results follow. Read counts after selection give these values, which scatter widely.
T1: G3BP2_NTF2_1_Q9UN86_1_139
T1 chain: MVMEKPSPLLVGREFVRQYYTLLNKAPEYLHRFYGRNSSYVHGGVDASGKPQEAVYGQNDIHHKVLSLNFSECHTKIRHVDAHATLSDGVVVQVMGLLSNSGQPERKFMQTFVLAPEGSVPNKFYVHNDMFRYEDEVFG

T2: MSN_FERM_1_P26038_1_322
T2 chain: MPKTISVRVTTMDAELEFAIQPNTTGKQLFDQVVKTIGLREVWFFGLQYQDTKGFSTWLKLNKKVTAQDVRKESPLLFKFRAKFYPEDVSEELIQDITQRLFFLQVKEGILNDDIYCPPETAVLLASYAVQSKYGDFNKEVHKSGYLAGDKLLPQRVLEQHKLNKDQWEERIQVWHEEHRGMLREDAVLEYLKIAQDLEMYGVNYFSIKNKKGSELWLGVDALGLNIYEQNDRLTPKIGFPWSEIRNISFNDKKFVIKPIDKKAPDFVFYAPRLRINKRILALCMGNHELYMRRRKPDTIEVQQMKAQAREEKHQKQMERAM

T3: RDX_FERM_1_P35241_5_295
T3 chain: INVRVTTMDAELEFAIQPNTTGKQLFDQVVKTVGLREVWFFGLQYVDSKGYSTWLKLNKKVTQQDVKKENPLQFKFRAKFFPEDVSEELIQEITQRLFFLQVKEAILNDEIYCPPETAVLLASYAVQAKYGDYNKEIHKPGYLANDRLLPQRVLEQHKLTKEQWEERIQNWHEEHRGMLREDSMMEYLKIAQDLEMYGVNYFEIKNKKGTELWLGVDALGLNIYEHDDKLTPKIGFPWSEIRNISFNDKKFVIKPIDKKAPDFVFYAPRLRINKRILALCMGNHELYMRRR


Molecular target: T1, G3BP2_NTF2_1_Q9UN86_1_139
Assay: mean normalised NGS count of phage-displayed peptide after selection on bait (% of reads); baits are purified protein domains named by gene / domain / UniProt id / residues; peptides come from disordered regions of human proteins; higher = stronger enrichment / binding
Conditions: replicate selections in which the peptide was seen: 5
For VTFIQTLPSDLARSVL [HUWE1 3059-3074 mut Q7Z6Z7.R3070C], the “mean normalised NGS count” value was 0.187.
In the case of HDVEEFPVLFFGSNDY [NSD1 1789-1804 mut Q96L73.G1792E], the “mean normalised NGS count” value is reported as 0.0485.
In the case of VTFESRAQLGGPEAAK [HSPB1 183-198 wt], the “mean normalised NGS count” value is reported as 0.0569.
With GKQLPFVYGDIPPGMV [SCN9A 56-71 mut Q15858.I62V] the “mean normalised NGS count” value was 0.116.
With LPAFQHLLFGEVNNIP [BRCA1 1223-1238 mut P38398.K1233E] the “mean normalised NGS count” value was 0.0559.
SPASPNEFAFGSYVPS [LCA5 544-559 wt] was tested, and the “mean normalised NGS count” value was 2.37.
In the case of GWASTAHPLSNMVLTF [NDUFS4 113-128 mut O43181.D119H], the “mean normalised NGS count” value is reported as 0.387.

Same assay, conditions: replicate selections in which the peptide was seen: 4
For LLQFLDTQSPMLTDPR [MED12 570-585 mut Q93074.A578S], the “mean normalised NGS count” value was 0.197.
With AAVSHWQQQSYLDFGI [CTNNB1 20-35 mut P35222.S33F] the “mean normalised NGS count” value was 0.125.
For FQDVLLQFLDTQSPML [MED12 566-581 mut Q93074.A578S], the “mean normalised NGS count” value was 0.0228.
For FGQAQMNFPLGDILIF [BCL11A 48-63 mut Q9H165.C48F], the “mean normalised NGS count” value was 0.0241.

Same assay, conditions: replicate selections in which the peptide was seen: 3
For LLQFLDTQAPMLTDPQ [MED12 570-585 mut Q93074.R585Q], the “mean normalised NGS count” value was 0.0877.
In the case of LTFGTEVSAAVLMSYP [SLC38A8 274-289 mut A6NNN8.D283A], the “mean normalised NGS count” value is reported as 0.0127.
For PFGLDFYSSDTEEPAI [MARVELD2 56-71 mut Q8N4S9.P59L], the “mean normalised NGS count” value was 0.0154.
For VTRNDVAPTLMSVPRY [CDH1 782-797 wt], the “mean normalised NGS count” value was 0.0702.

Each binder was assayed against FKBP1A_full-length__P62942_1_108, P62942 in the same assay as above. Conditions: replicate selections in which the peptide was seen: 2.
FKBP1A_full-length__P62942_1_108, P62942, sequence (P62942 whole entry): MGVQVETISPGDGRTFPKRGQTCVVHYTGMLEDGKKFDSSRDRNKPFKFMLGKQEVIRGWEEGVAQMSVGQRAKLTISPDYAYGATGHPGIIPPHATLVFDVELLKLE
In the case of GPKPMPPYSSMFILSM [CACNA1A 1213-1228 mut O00555.T1228M], the “mean normalised NGS count” value is reported as 0.729.
With WEMGPPGNWSPRPPAA [SQSTM1 198-213 mut Q13501.R212C] the “mean normalised NGS count” value was 0.0581.

Molecular target: T1, G3BP2_NTF2_1_Q9UN86_1_139
Assay: as above
Conditions: replicate selections in which the peptide was seen: 2
FVNFGVGDLNAVQGPG [NKX2-5 292-307 mut P52952.S305G] was tested, and the “mean normalised NGS count” value was 0.00807.
PMDPVTFIQTLPSDLR [HUWE1 3055-3070 wt] was tested, and the “mean normalised NGS count” value was 0.242.
For DKMRHDVGEFPVLFFG [NSD1 1785-1800 wt], the “mean normalised NGS count” value was 0.0147.
For TPTPFSVKDILNLEQQ [NKX2-5 8-23 wt], the “mean normalised NGS count” value was 0.016.
With NPHQDLQAQDRAHRVG [SMARCA2 1179-1194 mut P51532.I1193V] the “mean normalised NGS count” value was 0.132.
With NPHQDLQAQDRAHRVG [SMARCA4 1179-1194 mut P51532.I1193V] the “mean normalised NGS count” value was 0.132.

What follows are binders tested against FKBP1A_full-length__P62942_1_108, P62942 in the same assay as above. Conditions: replicate selections in which the peptide was seen: 5.
In the case of LGPTFTNTGAATLVIG [HNF1A 422-437 mut P20823.S432C], the “mean normalised NGS count” value is reported as 1.54.
WLPPLRDGGAKIDGYI [TTN 19746-19761 wt] was tested, and the “mean normalised NGS count” value was 3.51.

Same assay, conditions: replicate selections in which the peptide was seen: 6
In the case of LGPTFTNTGASTLVIG [HNF1A 422-437 wt], the “mean normalised NGS count” value is reported as 25.9.

The binders below were run against EZR_FERM_1_P15311_2_295 in the same assay as above. Conditions: replicate selections in which the peptide was seen: 4.
EZR_FERM_1_P15311_2_295, sequence (chain, as listed by the source): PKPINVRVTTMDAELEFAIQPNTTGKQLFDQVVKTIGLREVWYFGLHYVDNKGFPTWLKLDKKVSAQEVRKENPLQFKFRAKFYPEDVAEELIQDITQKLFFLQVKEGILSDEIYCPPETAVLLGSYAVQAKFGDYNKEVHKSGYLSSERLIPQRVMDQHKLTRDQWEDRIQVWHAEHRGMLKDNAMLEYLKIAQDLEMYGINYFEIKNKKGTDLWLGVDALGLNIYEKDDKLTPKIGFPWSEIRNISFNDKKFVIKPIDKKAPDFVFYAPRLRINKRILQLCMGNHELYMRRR
EEIFHMTYDLASAVVT [HCN4 282-297 mut O60741.R297T] was tested, and the “mean normalised NGS count” value was 16.

Molecular target: T2, MSN_FERM_1_P26038_1_322
Assay: as above
Conditions: replicate selections in which the peptide was seen: 6
In the case of EEIFHMTYDLASAVVT [HCN4 282-297 mut O60741.R297T], the “mean normalised NGS count” value is reported as 0.134.

Molecular target: T3, RDX_FERM_1_P35241_5_295
Assay: as above
Conditions: replicate selections in which the peptide was seen: 3
In the case of EEIFHMTYDLASAVVT [HCN4 282-297 mut O60741.R297T], the “mean normalised NGS count” value is reported as 2.2.

The binders below were run against FKBP1A_full-length__P62942_1_108, P62942 in the same assay as above. Conditions: replicate selections in which the peptide was seen: 4.
With PPGNWSPRPPAAGEAR [SQSTM1 202-217 mut Q13501.R212C] the “mean normalised NGS count” value was 0.516.

Source: the supplement of paper PMC11369174, “Proteome-scale characterisation of motif-based interactome rewiring by disease mutations” (Molecular Systems Biology, 2024)
